Source: patent publication US12459974B2, “Bicyclic peptide ligands specific for Nectin-4” (priority 2018, dated 2025)
At least one peptide structure holds a part that was inferred or is arguable (an end, a ring closure or a residue).

Biological target: T1, human Nectin-4 (Homo sapiens, UniProt Q96NY8)
T1 sequence (Q96NY8 32-510): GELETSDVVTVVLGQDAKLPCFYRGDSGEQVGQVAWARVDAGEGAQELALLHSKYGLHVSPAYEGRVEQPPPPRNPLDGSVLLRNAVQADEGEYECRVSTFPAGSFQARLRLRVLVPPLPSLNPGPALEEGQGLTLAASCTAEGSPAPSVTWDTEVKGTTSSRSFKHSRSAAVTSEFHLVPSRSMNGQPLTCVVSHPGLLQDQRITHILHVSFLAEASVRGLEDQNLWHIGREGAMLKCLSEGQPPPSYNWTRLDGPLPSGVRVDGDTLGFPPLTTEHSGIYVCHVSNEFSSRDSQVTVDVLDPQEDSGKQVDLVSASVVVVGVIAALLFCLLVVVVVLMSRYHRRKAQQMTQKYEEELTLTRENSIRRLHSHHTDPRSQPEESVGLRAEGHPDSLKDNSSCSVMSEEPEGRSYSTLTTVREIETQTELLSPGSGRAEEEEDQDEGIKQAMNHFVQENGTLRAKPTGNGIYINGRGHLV
Test: Nectin-4 competition binding assay (fluorescence polarisation)
Details: competition with fluorescent peptide SEQ ID NO: 217
Experimental: Peptides were diluted to an appropriate concentration in assay buffer as described in the direct binding assay with a maximum of 5% DMSO, then serially diluted 1 in 2. Five μL of diluted peptide was added to the plate followed by 10 μL of human Nectin-4, then 10 μL fluorescent peptide added. Measurements were conducted as for the direct binding assay, however the gain was determined prior to the first measurement. Data analysis was in Systat Sigmaplot version 12.0 where the mP values were fit to a user defined cubic equation to generate a Ki value: • f=ymin+(ymax−ymin)/Lig*((Lig*((2*((Klig+Kcomp+Lig+Comp-Prot*c)^2-3*(Kcomp*(Lig-Prot*c)+Klig*(Comp-Prot*c)+Klig*Kcomp))^0.5*COS(ARCCOS((−2*(Klig+Kcomp+Lig+Comp-Prot*c)^3+9*(Klig+Kcomp+Lig+Comp-Prot*c)*(Kcomp*(Lig-Prot*c)+Klig*(Comp-Prot*c)+Klig*Kcomp)−27*(−1*Klig*Kcomp*Prot*c)/(2*((((Klig+Kcomp+Lig+Comp-Prot*c)^2−3*(Kcomp*(Lig-Prot*c)+Klig*(Comp-Prot*c)+Klig*Kcomp))^3)^0.5)))/3))−(Klig+Kcomp+Lig+Comp-Prot*c)))/((3*Klig)+((2*((Klig+Kcomp+Lig+Comp-Prot*c)^2−3*(Kcomp*(Lig-Prot*c)+Klig*(Comp-Prot*c)+Klig*Kcomp))^0.5*COS (ARCCOS ((−2*(Klig+Kcomp+Lig+Comp-Prot*c)^3+9*(Klig+Kcomp+Lig+Comp-Prot*c)*(Kcomp*(Lig-Prot*c)+Klig*(Comp-Prot*c)+Klig*Kcomp)-27*(−1*Klig*Kcomp*Prot*c))/(2*((((Klig+Kcomp+Lig+Comp-Prot*c)^2-3*(Kcomp*(Lig-Prot*c)+Klig*(Comp-Prot+c)+Klig*Kcomp))^3)^0.5))/3)−(Klig+Kcomp+Lig+Comp-Prot*c)))). […]

CC[C@H](C)[C@@H]1NC(=O)[C@@H]2CCCN2C(=O)[C@H](Cc2c[nH]c3ccccc23)NC(=O)[C@H](CO)NC(=O)[C@H](Cc2c[nH]c3ccccc23)NC(=O)[C@H](CC(N)=O)NC(=O)[C@H](CCCCN)NC(=O)[C@H](CCSC)NC(=O)[C@@H]2CSCCC(=O)N3CN(CN(C3)C(=O)CCSC[C@H](NC(=O)[C@H](C)NC(=O)[C@@H](N)Cc3ccc(-c4ccccc4)cc3)C(=O)N3CCC[C@H]3C(=O)N[C@@H](Cc3ccccc3)C(=O)NCC(=O)N2)C(=O)CCSC[C@@H](C(=O)N[C@@H](C)C(N)=O)NC(=O)[C@H](Cc2c[nH]c3ccccc23)NC1=O [BCY7521, (44BPA) A-(SEQ ID NO: 1)-A] showed a Ki of 224 nM.
